# Test results published in paper PMC4336329 (PLoS ONE, 2015).
# The campaign covered roughly 310,000 compounds. About 14,000 (4.5%) showed an effect of 50% or more. Effects have a minus sign here. The list shows a part of the results.
# Biological target: human ether-à-go-go-related gene (hERG) potassium channel (human, UniProt Q12809)
# Assay: primary screen, population patch clamp on CHO cells stably expressing hERG
# 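Note: peak tail current of the secondary pulse compared with the same well before compound.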
# human ether-à-go-go-related gene (hERG) potassium channel, sequence (Q12809 whole entry, looked up): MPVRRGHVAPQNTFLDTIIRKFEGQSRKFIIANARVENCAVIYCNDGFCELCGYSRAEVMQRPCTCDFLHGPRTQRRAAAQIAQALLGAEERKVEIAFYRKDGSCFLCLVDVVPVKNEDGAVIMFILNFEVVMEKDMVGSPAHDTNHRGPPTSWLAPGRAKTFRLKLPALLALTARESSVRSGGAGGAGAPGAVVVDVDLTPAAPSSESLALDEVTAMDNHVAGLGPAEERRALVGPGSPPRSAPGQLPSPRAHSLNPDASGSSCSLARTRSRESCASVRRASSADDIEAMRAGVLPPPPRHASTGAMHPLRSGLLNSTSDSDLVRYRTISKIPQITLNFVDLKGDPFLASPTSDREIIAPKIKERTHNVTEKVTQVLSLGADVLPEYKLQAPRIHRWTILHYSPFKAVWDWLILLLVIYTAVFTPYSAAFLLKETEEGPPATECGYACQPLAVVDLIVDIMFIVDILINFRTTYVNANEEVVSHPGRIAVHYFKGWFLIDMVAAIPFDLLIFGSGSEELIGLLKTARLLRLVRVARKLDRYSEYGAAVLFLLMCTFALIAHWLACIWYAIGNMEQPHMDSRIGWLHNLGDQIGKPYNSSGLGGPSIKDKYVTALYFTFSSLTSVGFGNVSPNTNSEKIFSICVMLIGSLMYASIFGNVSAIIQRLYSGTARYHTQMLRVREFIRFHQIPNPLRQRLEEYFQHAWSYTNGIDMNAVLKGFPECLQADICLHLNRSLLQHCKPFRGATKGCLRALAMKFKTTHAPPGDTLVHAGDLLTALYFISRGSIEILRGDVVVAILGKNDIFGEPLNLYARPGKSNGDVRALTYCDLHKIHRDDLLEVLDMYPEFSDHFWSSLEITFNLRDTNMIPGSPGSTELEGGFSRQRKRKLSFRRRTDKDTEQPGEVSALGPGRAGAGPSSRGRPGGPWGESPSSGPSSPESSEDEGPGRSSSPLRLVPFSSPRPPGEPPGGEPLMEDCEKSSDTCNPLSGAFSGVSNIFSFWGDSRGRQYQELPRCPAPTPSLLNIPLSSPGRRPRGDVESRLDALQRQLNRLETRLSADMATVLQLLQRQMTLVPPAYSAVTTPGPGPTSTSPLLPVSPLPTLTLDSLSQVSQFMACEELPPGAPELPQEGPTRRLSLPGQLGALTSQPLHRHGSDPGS
row,SMILES,"hERG current change (%, negative = inhibition) at 10uM"
1,Nc1nncn1C(=O)c1cc(Br)ccc1Cl,6.05%
2,CCN1/C(=C/c2ccc3ccccc3[n+]2CCCS(=O)(=O)[O-])C=Cc2cc(C)ccc21,24.2%
3,CCC(=O)N1CC(=O)Nc2ccc(Cl)cc2C1c1ccc(F)cc1 (centres unmarked),-15.5%
4,O=C(COC(=O)CCSc1ccc(Cl)cc1)Nc1ccc(F)cc1,3.83%
5,Cc1noc(C)c1S(=O)(=O)Nc1ccc(C#N)cc1,26.2%
6,COc1ccc(S(=O)(=O)N2CCOCC2)cc1NC(=O)COC(=O)C1CC1C (centres unmarked),-14.4%
7,Cc1cc(C)cc(NC(=O)C2C3C=CC4(O3)C2C(=O)N(CCCN2CCCCC2)C4C(=O)NC2CCCCC2)c1 (centres unmarked),20.7%
8,C1COCCO1.Cn1c2c(c(=O)n(C)c1=O)C(c1ccccc1Cl)C(C#N)=C(N)O2 (centres unmarked),-0.151%
9,CC(C)(C)NC(=O)NC(=O)CSc1n[nH]c(-c2ccccc2Br)n1,-7.9%
10,CC(=O)N1CCc2cc(S(=O)(=O)N3CCOCC3)ccc21,8.67%
11,COc1ccc(OC)c(C2NC(=O)NC(C)=C2C(=O)Nc2ccc(C)cc2C)c1 (centres unmarked),-11.6%
12,CO/N=C/CC(=O)c1ccc([N+](=O)[O-])c(CS(=O)(=O)c2ccc(Cl)cc2)c1,-19.4%
13,Cc1c(Br)c([N+](=O)[O-])nn1CCCC(=O)NC(C)c1ccccc1 (centres unmarked),-16.2%
14,O=C(c1ccccc1)N1CCN(c2ccc([N+](=O)[O-])cc2-n2cccc2)CC1,-54.5%
15,O=C(CSCC(=O)NC1CC1)Nc1ccccc1,1.08%
16,O=C(NCCc1ccc(C(F)(F)F)cc1)C1CCC(=O)N(CCCc2ccccc2)C1 (centres unmarked),-50.2%
17,Cc1nnc(SCCn2c(N3CCCCCC3)nc3c2c(=O)[nH]c(=O)n3C)s1,-7.4%
18,N#C/C(=C(/O)c1ccco1)c1nc2ccccc2[nH]1,17.4%
19,CCCCOCP(=O)(CC)COCCCC,7.27%

row,SMILES,"hERG current change (%, negative = inhibition) at 10uM"
1,COc1cc(C(=O)Nc2ccc(C)cc2)c(-n2cnnn2)cc1OC,-1.87%
2,O=C(NC1CCCCC1)C(c1ccccc1F)N(Cc1ccco1)C(=O)c1ccccn1 (centres unmarked),-4.03%
3,Cc1oc2nc(SCC(=O)NC3CCCCC3)nc(N)c2c1C,-14.8%
4,O=C(COC(=O)c1cccc(Br)c1)NCCNC(=O)COC(=O)c1cccc(Br)c1,24%
5,COc1ccc(/C(N)=N/OC(=O)c2ccco2)cc1,8.02%
6,CNS(=O)(=O)c1cccc(C(=O)OCC(=O)Nc2ccc(-c3nc4ccc(C)cc4s3)cc2)c1,0.307%
7,COc1ccc(NC(=O)CSc2cn[nH]n2)cc1OC,31.4%
8,CCN(CC)c1c([N+](=O)[O-])c(=O)n(CC)c2ccccc12,-8.79%
9,Cc1ccc(N(C(=O)CNC(=O)c2ccco2)C(C(=O)NC2CCCCC2)c2cccnc2)c(C)c1 (centres unmarked),-71.9%
10,Nc1nnc(Cc2ccc(F)cc2)s1,2.22%
11,COC(=O)CC1(C(=O)OC)Oc2ccc(Br)cc2C(=O)N1c1ccc(Br)cc1Cl (centres unmarked),4.17%
12,CN(C)S(=O)(=O)c1cccc(NC(=S)N2CCc3ccccc32)c1,-15.3%
13,CSc1ccccc1NC(=O)NCCCl,14.2%
14,CCOC(=O)c1c(C)[nH]c(N=Nc2ccccc2C)c1C,11%
15,CCOC(=O)Cc1[nH]nc2c1C(c1cc(OC)ccc1OC)C(C#N)=C(N)O2 (centres unmarked),4.47%
16,O=[N+]([O-])c1cc(F)c(N2CCCC2)cc1Br,13.7%
17,Cc1ccc(N(CC(=O)NCC2CCCO2)S(C)(=O)=O)cc1Cl (centres unmarked),10.8%
18,Cn1c(=O)n(Cc2ccccc2)c(=O)c2c1nc(NCC1CCCO1)n2Cc1ccccc1 (centres unmarked),-12.3%
19,Nc1nc(Sc2ccc([N+](=O)[O-])cc2[N+](=O)[O-])n[nH]1,14%

row,SMILES,"hERG current change (%, negative = inhibition) at 10uM"
1,COc1ccc(-c2csc(-c3cccnc3)n2)cc1C,-3.79%
2,COc1ccc(S(=O)(=O)N2CCN(CC(O)COc3ccc(CC#N)cc3)CC2)cc1OC (centres unmarked),-21.5%
3,COC(=O)c1cc(-c2cc(OC)ccc2OC)nc2c1c(=O)n(C)c(=O)n2Cc1ccccc1,18.1%
4,COC(=O)c1cc(NC(=O)c2cc(-c3ccc(OC)cc3)oc2C(F)(F)F)ccc1N1CCOCC1,-19.1%
5,Cc1cc(C(=O)C(=O)N(C)C)c(C)n1-c1ccc(Cl)c(Cl)c1,-28.9%
6,CCOC(=O)CCSc1nnc(-c2cccnc2)n1-c1ccccc1OC,-7.86%
7,COc1ccc(NC(=S)N(CCc2c(C)[nH]c3ccccc23)Cc2ccco2)cc1,0.208%
8,COc1ccc(CCNC(=O)C(=O)c2c[nH]c3ccccc23)cc1OC,2.33%
9,CC1Cc2ccccc2N1C(=O)Cn1cnc2c1c(=O)n(C)c(=O)n2C (centres unmarked),-8.03%
10,CC(C)(C)c1cc(=O)n(-c2ccccc2)[nH]1,20.8%
11,CCOc1cccc(CNc2ccc(O)cc2)c1OCc1ccc(Cl)cc1,10.3%
12,CCNC(=S)N1C2CCC1CC(NC(=O)NC1CCCCC1)C2 (centres unmarked),-2.68%
13,Cc1c(NC(=O)C(C)OC(=O)CNC(=O)c2ccccc2)c(=O)n(-c2ccccc2)n1C (centres unmarked),-7.12%
14,CC(NC(=O)c1cc(S(=O)(=O)N(C)C)ccc1N1CCCC1)C1CC2CCC1C2 (centres unmarked),-7.29%
15,Cc1nc2ccc(NC(=O)COc3ccccc3[N+](=O)[O-])cc2s1,23%
16,CCOC(=O)Nc1sc2nc(C)cc(C)c2c1-n1cccc1,9.51%
17,CCCCCCCC(=O)NNC(=O)CCC(=O)O,9.3%
18,COc1cc(NC(=O)c2ccc(Br)o2)c(C(=O)O)cc1OC,20.8%
